According to PubChem BioAssay AID602342 (Broad Institute, 2012):
The whole screen tested about 340,000 compounds, of which about 1,000 (0.29%) were called active. The shares of active, inactive and inconclusive entries below differ from those in the screen.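 Rule for the calls: active = mean replicate activation score at least 90 and every replicate individually at or above 90; inconclusive = only one of the two criteria met; inactive = neither criterion met.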 More than one record can exist for a structure, and the calls need not agree.

test: miR-122 Renilla sensor signal increase in Huh7, primary screen, miR-122 inhibitor project, cell-based, single point, plate reader (AID 602342); conditions: Huh7 miR-122 Renilla luciferase sensor, 48 h, stronger effect = higher value, neutral wells = 0, positive control = 100; at 12.5 µM unless noted;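 note: higher luciferase means less miR-122 activity so hits act as miR-122 inhibitors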

Row | SMILES | activation (reporter increase)
1 | CC1(C)N([O-])C(c2cccs2)=C[N+]1=O | active: 103%
2 | O=C1C(C=NCCN2CCOCC2)=C(O)c2ccccc21 | inactive: -3.63%
3 | CCOc1cc(S(=O)(=O)NCCN2CCOCC2)c(C)cc1C | inconclusive: 91.5%
4 | Cc1c(C(=O)N2CCCCC2)c(S(=O)(=O)Nc2cccc(Br)c2)c(C)n1C | inconclusive: 92%
5 | CCc1noc(C)c1C(=O)OCC(=O)c1ccc(NC(C)=O)cc1F | inconclusive: 103%
6 | CN(C)S(=O)(=O)n1cc(/C=C(\NC(=O)c2ccccc2Cl)C(=O)NCCCn2ccnc2)c2ccccc21 | active: 125%
7 | Cc1ccc(C2CC(c3cccs3)=NN2S(=O)(=O)c2ccc(C)cc2)cc1 (centres undefined) | active: 98.1%
8 | CCn1c(=O)c2cc(C(=O)NCC(OC)OC)sc2c2ccccc21 | inactive: -10.2%
9 | CCOc1ccccc1N(CC(=O)N1CCCCCC1)S(=O)(=O)c1ccc(C)cc1 | inconclusive: 93.3%
10 | COc1ccccc1-c1nnc2sc(-c3ccc(N(C)C)cc3)nn12 | inconclusive: 100%
11 | COC(=O)c1ccc(Cl)c(NC(C)=O)c1 | inconclusive: 127%
12 | CC(C)(C)NS(=O)(=O)c1ccc2[nH]c3c(c2c1)CCCCC3 | inconclusive: 108%
13 | COc1cccc(CC(=O)Nc2ccc(N3CCOCC3)c(S(=O)(=O)Nc3ccccc3OC)c2)c1 | active: 129%
14 | COc1ccc(NS(=O)(=O)c2ccc(OC)c(OC)c2)cc1OC | inconclusive: 97%
15 | C/C=C/COC(=O)c1[nH]c2c(c1C)C(=O)CC(c1ccco1)C2 (centres undefined) | inconclusive: 98.2%
16 | O=C(COc1ccc(-n2cnnn2)cc1)Nc1ccc(F)c(F)c1 | inactive: -7.5%
17 | O=C(C[C@H]1CC[C@H]2[C@@H](COC[C@H](O)CN2C(=O)Nc2cccc(F)c2)O1)NCc1ccccc1F | inconclusive: 96.8% [at 16.7 µM]
18 | N#C/C(=N\Nc1ccc(S(=O)(=O)N2CCCCC2)cc1)C(N)=S | inconclusive: 115%
19 | Cc1ccc(C(=O)NCc2ccco2)cc1S(=O)(=O)Nc1cccc(C)c1C | active: 244%
20 | CN(C)c1ccc2c(c1)[C@@H]1C[C@H](CC(=O)NCc3ccc(-c4ccccc4)cc3)O[C@@H](CO)[C@@H]1O2 | inactive: 1.4% [at 16.7 µM]
21 | C/C=C/c1ccc2c(c1)O[C@H](CN(C)C(=O)c1cnccn1)[C@H](C)CN([C@@H](C)CO)S2(=O)=O | inactive: -44.3% [at 16.7 µM]
22 | CCc1c(C(=O)Nc2ccc(OC)cc2)[nH]c(C)c1C(C)=O | inconclusive: 99.4%
23 | Cc1ccc(S(=O)(=O)NCCc2ccncc2)cc1[N+](=O)[O-] | inconclusive: 92.8%
24 | O=C(C1CCN(Cc2ccc(F)cc2)CC1)N1CCN(C/C=C/c2ccccc2)CC1 | inconclusive: 102%
25 | Cc1ccc(-n2c(CSc3nc(C)cc(C)n3)nnc2SCC(=O)NCc2ccco2)cc1 | inactive: -19.4%
26 | C[C@@H]1CCCCO[C@H](CN(C)S(=O)(=O)c2ccccc2)[C@@H](C)CN([C@H](C)CO)C(=O)c2cc(NC(=O)CCC(F)(F)F)ccc2O1 | inactive: 1.73% [at 16.7 µM]
27 | Cc1ccc(S(=O)(=O)N2CCC3(CC2)OCCN3S(=O)(=O)c2cccs2)cc1 | inconclusive: 91.1%

Row | SMILES | activation (reporter increase)
28 | O=c1[nH]c(=O)n([C@H]2C[C@H](O)[C@@H](CO)O2)cc1Br | inactive: 30.1%
29 | COc1ccccc1S(=O)(=O)Nc1cccc(S(=O)(=O)N2CCCC2)c1 | inconclusive: 77.4%
30 | Cc1ccnc(NC(=O)CCCOc2cc(=O)n(C)c3ccccc23)c1 | active: 183%
31 | CCOc1ccc(Br)cc1S(=O)(=O)Nc1cccc(S(=O)(=O)N(CC)CC)c1 | inconclusive: 110%
32 | C/C=C/c1ccc([C@@H]2[C@@H](CO)N3CCCCN(S(=O)(=O)c4cccc(C)c4)C[C@H]23)cc1 | inactive: 20.9% [at 16.7 µM]
33 | CCCCOc1ccc(-c2nnn(CC(=O)c3c[nH]c4ccccc34)n2)cc1 | inactive: -3.24%
34 | CC(=O)N1CCSc2ccc(S(=O)(=O)Nc3ccc(C)cc3)cc21 | inconclusive: 97.1%
35 | COc1cccc(N2CCN(C(=S)Nc3cccc(C)c3)CC2)c1 | inconclusive: 121%
36 | CCc1ccc(NC(=O)Cc2cn(C)c3ccccc23)cc1 | inconclusive: 94.9%
37 | N#Cc1cnn2c1nc(N1CCCCC1)c1ccccc12 | active: 134%
38 | CCNc1ccc(S(=O)(=O)N(C)C)cc1NCC(=O)Nc1ccc(F)c(Cl)c1 | inconclusive: 93.3%
39 | CCCCCc1ccc(OCCCC[n+]2cccc(C)c2)c(CCCCC)c1 | inactive: -24.6%
40 | COc1ccc(O)c(/C=N\NC(=O)CCn2nnc3ccccc32)c1 | inactive: -15.6%
41 | Cc1cc(C(=O)Nc2cccc3c2O[C@@H](CN(C)CC2CCCCC2)[C@@H](C)CN([C@H](C)CO)C3=O)n(C)n1 | active: 96.5% [at 16.7 µM]
42 | COc1ccc(-c2ccc3c(c2)O[C@@H](CN(C)C(C)=O)[C@H](C)CN([C@H](C)CO)S3(=O)=O)cc1 | inactive: -0.418% [at 16.7 µM]
43 | COC(=O)C1CCN(C(=O)COC(=O)c2n[nH]c3ccccc23)CC1 | inactive: -2.35%
44 | CC1(C)Cc2ccccc2C(CSc2ccccc2C(=O)O)=N1 | inactive: -2.49%
45 | COC(=O)c1cc(Br)ccc1NC(=O)Nc1ccccc1 | inconclusive: 101%
46 | Cc1ccc2[nH]c(CNC(=O)C3CCCCC3)cc2c1 | active: 135%
47 | O=C(Nc1ccccc1O)c1ccc(NS(=O)(=O)c2cccc3cccnc23)cc1 | inconclusive: 91.7%
48 | CC(C)(C)OC(=O)NCc1ccc(CNC(=O)c2[nH]cnc2C(=O)Nc2ccccc2F)cc1 | inactive: -1.7%
49 | COc1ccc(NS(=O)(=O)c2cc(NC(=O)c3ccco3)ccc2N2CCCCC2)cc1 | active: 209%
50 | CCOC(=O)C1CCCN(C(=O)c2cc3c(C)nc4ccccc4c3o2)C1 (centres undefined) | inactive: -1.9%
51 | COC(=O)c1ccc2c(=O)n(CC3CCCO3)c(SCC(=O)Nc3ccccc3OC)nc2c1 (centres undefined) | active: 190%
52 | O=S(=O)(NCc1ccccc1)c1ccc2c(c1)OCCO2 | inconclusive: 90.4%
53 | CN(C[C@H]1N[C@@H](CO)[C@H]1c1ccc(-c2cccc(F)c2)cc1)S(C)(=O)=O | inconclusive: 100% [at 16.7 µM]
54 | Cc1ccc2nc(C)c(C)nc2c1N | active: 113%

Row | SMILES | activation (reporter increase)
55 | O=C(Cc1ccccc1)N1C[C@@H]2[C@H](c3ccccc31)[C@H](CO)N2C(=O)Nc1ccc(F)cc1 | inconclusive: 92.3% [at 16.7 µM]
56 | Cc1cc(C)cc(NS(=O)(=O)c2ccc(-c3cnc(C4CC4)o3)cc2)c1 | active: 375%
57 | N#Cc1ccc(NC(=S)N2CCC3CC2c2cc(-c4ccc5c(c4)OCO5)ccc23)cc1 (centres undefined) | active: 110%
58 | CCCNC(=O)N1C[C@H]2[C@@H](c3ccccc31)[C@@H](CO)N2Cc1ccc(F)cc1 | inconclusive: 91.7% [at 16.7 µM]
59 | Cc1cc(Cl)c(S(=O)(=O)N2CCCCCC2)cc1OCC(=O)NC1CCCCC1 | inconclusive: 98.6%
60 | Cc1noc(C)c1S(=O)(=O)N(C)C[C@@H]1Oc2c(NC(=O)c3cnccn3)cccc2C(=O)N([C@@H](C)CO)C[C@@H]1C | active: 166% [at 16.7 µM]
61 | CC(=O)N1CCOc2ccc(S(=O)(=O)Nc3cccc(C)c3)cc21 | active: 130%
62 | C[C@H](CO)N1C[C@H](C)[C@@H](CN(C)CC2CC2)Oc2ccc(NC(=O)CCCN(C)C)cc2C1=O | inactive: 3.1% [at 16.7 µM]
63 | Cc1cc(C)c(S(=O)(=O)NC(C)C)c(C)c1-n1cnnn1 | active: 91.2%
64 | O=C(NC[C@@H]1[C@H](c2ccccc2)[C@@H](CO)N1C(=O)C1CC1)NC1CCCC1 | inconclusive: 108% [at 16.7 µM]
65 | S=C1SCN(Cc2cccnc2)CN1Cc1ccccc1 | inactive: 4.44%
66 | CCOC(=O)Nc1cc2c(c(N)n1)N=C(c1ccccc1)CN2 | inconclusive: 119%
67 | CC(C)NC(=O)CC(c1ccccc1)c1cc(Br)ccc1O (centres undefined) | inconclusive: 91.3%
68 | Clc1ccccc1N1CCN(Cc2c[nH]c3ccccc23)CC1 | inactive: 4.04%
69 | Cc1ccc(OCC(=O)Nc2cccc3c2CCCC3)cc1C | inconclusive: 94.9%
70 | CC(OC(=O)c1ccc(-n2cnnn2)cc1)C(=O)Nc1ccccc1F (centres undefined) | inactive: 1.79%
71 | COc1ccc(S(=O)(=O)Nc2ccc(F)cc2)cc1N(C)S(=O)(=O)c1ccc(Cl)cc1 | inconclusive: 96.3%
72 | CC(C)NC(=O)Nc1cccc2c1O[C@@H](CN(C)Cc1ccc(C(F)(F)F)cc1)[C@H](C)CN([C@H](C)CO)C2=O | inconclusive: 90.8% [at 16.7 µM]
73 | C[C@@H]1CN([C@H](C)CO)S(=O)(=O)c2ccc(C3=CCCCC3)cc2O[C@@H]1CN(C)Cc1ccccc1 | inconclusive: 92.2% [at 16.7 µM]
74 | COc1ccc(N2C(=O)c3cccc4c(N(C)CCO)ccc(c34)C2=O)cc1 | inconclusive: 202%
75 | C[C@@H]1CN([C@H](C)CO)S(=O)(=O)c2ccc(-c3ccc(F)cc3)cc2O[C@@H]1CN(C)Cc1ccccc1C(=O)O | inconclusive: 92.2% [at 16.7 µM]
76 | CCOCCCN(C)C1CCN(C(=O)c2oc3ccccc3c2NC(=O)c2ccc([N+](=O)[O-])cc2)CC1 | inconclusive: 90%
77 | O=C1[C@H]2[C@@H](c3ccccc3)N[C@]3(CCCN(Cc4ccc(Br)cc4)C3=O)[C@H]2C(=O)N1Cc1ccccc1 | inactive: -10.1%
78 | Nc1ncc(Br)cc1S(=O)(=O)NCCc1ccccc1 | active: 105%
79 | COc1cccc(NC(=O)Nc2ccc3c(c2)OCO3)c1 | inactive: 8.4%
